# Measurements published in the supplement of paper PMC8728848.
# This is one part of the list.
# B1: Epa9 (Candida glabrata), CAGL0A01386g (protein)
# chain: MGSSHHHHHHSSGLVPRGSHMDITPFAHYPRPEGCSSPPNAVSVGLHMDLYNYPYLYVKNPRTGFTNDTDSDADGETDGDSAGGIEGRAGQCWNPEYQDPNFPRYGYKKYGSFGSSDHVNGKISWDHNEFKEGCKPIMARLPTAYNYPAKITFSNFTMVLSGYFKPKSTGLYKFEIHADDFILFNFGSKNAFECCNREESIDNFGPYVAYAMWPNEADQELEVYLFEDSYYPIRLFYNNRDYHSKFMVGFYPPNTEEITYDFDGYLYMLDDTGNECKDSIRYKTVCDD
# How the values were obtained:
# Assay in all cases: glycan array binding signal (z-score within array); higher = stronger binding
# Conditions in all cases: glycan notation: IUPAC condensed, linker removed
# [1] = target: Gal(b1-3)GlcNAc(b1-6)GalNAc
# Procedure, shortened: (§1)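 The binding signal is a Z-score computed within each array and averaged over linkers. Arrays of the same protein sequence at different concentrations or buffers were also averaged together. Data originate from 3228 arrays in the Consortium for Functional Glycomics database, kept only where the protein sequence was available.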
# [2] = target: Gal(b1-3)GlcNAc(b1-6)[Gal(b1-3)]GalNAc
# Procedure, shortened: as §1
# Gal(b1-3)GlcNAc6S = target: Gal(b1-3)GlcNAc6S
# Procedure, shortened: as §1
# [3] = target: Gal(b1-3)[Fuc(a1-4)]GlcNAc
# Procedure, shortened: as §1
# [4] = target: Gal(b1-3)[Fuc(a1-4)]GlcNAc(b1-2)Man
# Procedure, shortened: as §1
# [5] = target: Gal(b1-3)[Fuc(a1-4)]GlcNAc(b1-2)Man(a1-3)[Gal(b1-3)[Fuc(a1-4)]GlcNAc(b1-2)Man(a1-6)]Man(b1-4)GlcNAc(b1-4)[Fuc(a1-6)]GlcNAc
# Procedure, shortened: as §1
# [6] = target: Gal(b1-3)[Fuc(a1-4)]GlcNAc(b1-3)Gal(b1-3)[Fuc(a1-4)]GlcNAc
# Procedure, shortened: as §1
# [7] = target: Gal(b1-3)[Fuc(a1-4)]GlcNAc(b1-3)Gal(b1-4)[Fuc(a1-3)]GlcNAc
# Procedure, shortened: as §1
# [8] = target: Gal(b1-3)[Fuc(a1-4)]GlcNAc(b1-6)GalNAc
# Procedure, shortened: as §1
# [9] = target: Gal(b1-3)[GlcNAc(b1-6)]GalNAc
# Procedure, shortened: as §1
# [10] = target: Gal(b1-3)[Neu5Ac(a2-6)]GalNAc
# Procedure, shortened: as §1
# [11] = target: Gal(b1-3)[Neu5Ac(a2-6)]GlcNAc(b1-4)Gal(b1-4)Glc
# Procedure, shortened: as §1
# [12] = target: Gal(b1-3)[Neu5Ac(b2-6)]GalNAc
# Procedure, shortened: as §1
# Gal(b1-4)Gal = target: Gal(b1-4)Gal
# Procedure, shortened: as §1
# [13] = target: Gal(b1-4)GalNAc(a1-3)[Fuc(a1-2)]Gal(b1-4)GlcNAc
# Procedure, shortened: as §1
# [14] = target: Gal(b1-4)GalNAc(b1-3)[Fuc(a1-2)]Gal(b1-4)GlcNAc
# Procedure, shortened: as §1
# Gal(b1-4)Glc = target: Gal(b1-4)Glc
# Procedure, shortened: as §1
# Gal(b1-4)Glc6S = target: Gal(b1-4)Glc6S
# Procedure, shortened: as §1
# Gal(b1-4)GlcNAc = target: Gal(b1-4)GlcNAc
# Procedure, shortened: as §1
# [15] = target: Gal(b1-4)GlcNAc(a1-6)Gal(b1-4)GlcNAc
# Procedure, shortened: as §1
# Gal(b1-4)GlcNAc(b1-2)Man = target: Gal(b1-4)GlcNAc(b1-2)Man
# Procedure, shortened: as §1
# [16] = target: Gal(b1-4)GlcNAc(b1-2)Man(a1-3)Man(b1-4)GlcNAc(b1-4)GlcNAc
# Procedure, shortened: as §1
# [17] = target: Gal(b1-4)GlcNAc(b1-2)Man(a1-3)[Gal(b1-4)GlcNAc(b1-2)Man(a1-6)]Man(b1-4)GlcNAc(b1-4)GlcNAc
# Procedure, shortened: as §1
# [18] = target: Gal(b1-4)GlcNAc(b1-2)Man(a1-3)[Gal(b1-4)GlcNAc(b1-2)Man(a1-6)]Man(b1-4)GlcNAc(b1-4)[Fuc(a1-6)]GlcNAc
# Procedure, shortened: as §1
# [19] = target: Gal(b1-4)GlcNAc(b1-2)Man(a1-3)[Gal(b1-4)GlcNAc(b1-2)Man(a1-6)][Gal(b1-4)GlcNAc(b1-4)]Man(b1-4)GlcNAc(b1-4)[Fuc(a1-6)]GlcNAc
# Procedure, shortened: as §1
# [20] = target: Gal(b1-4)GlcNAc(b1-2)Man(a1-3)[Gal(b1-4)GlcNAc(b1-2)Man(a1-6)][GlcNAc(b1-4)]Man(b1-4)GlcNAc(b1-4)[Fuc(a1-6)]GlcNAc
# Procedure, shortened: as §1
# [21] = target: Gal(b1-4)GlcNAc(b1-2)Man(a1-3)[GlcNAc(b1-2)Man(a1-6)]Man(b1-4)GlcNAc(b1-4)GlcNAc
# Procedure, shortened: as §1
# [22] = target: Gal(b1-4)GlcNAc(b1-2)Man(a1-3)[GlcNAc(b1-4)][Gal(b1-4)GlcNAc(b1-2)Man(a1-6)]Man(b1-4)GlcNAc(b1-4)GlcNAc
# Procedure, shortened: as §1
# [23] = target: Gal(b1-4)GlcNAc(b1-2)Man(a1-3)[Man(a1-6)]Man(b1-4)GlcNAc(b1-4)GlcNAc
# Procedure, shortened: as §1
# [24] = target: Gal(b1-4)GlcNAc(b1-2)Man(a1-6)Man(b1-4)GlcNAc(b1-4)GlcNAc
# Procedure, shortened: as §1
# [25] = target: Gal(b1-4)GlcNAc(b1-2)Man(a1-6)[GlcNAc(b1-2)Man(a1-3)]Man(b1-4)GlcNAc(b1-4)GlcNAc
# Procedure, shortened: as §1
# [26] = target: Gal(b1-4)GlcNAc(b1-2)Man(a1-6)[Man(a1-3)]Man(b1-4)GlcNAc(b1-4)GlcNAc
# Procedure, shortened: as §1
# [27] = target: Gal(b1-4)GlcNAc(b1-2)[Gal(b1-4)GlcNAc(b1-4)]Man(a1-3)[Gal(b1-4)GlcNAc(b1-2)Man(a1-6)]Man(b1-4)GlcNAc(b1-4)GlcNAc
# Procedure, shortened: as §1
# [28] = target: Gal(b1-4)GlcNAc(b1-2)[Gal(b1-4)GlcNAc(b1-4)]Man(a1-3)[Gal(b1-4)GlcNAc(b1-2)[Gal(b1-4)GlcNAc(b1-6)]Man(a1-6)]Man(b1-4)GlcNAc(b1-4)GlcNAc
# Procedure, shortened: as §1
# [29] = target: Gal(b1-4)GlcNAc(b1-2)[Gal(b1-4)GlcNAc(b1-4)]Man(a1-3)[GlcNAc(b1-4)][Gal(b1-4)GlcNAc(b1-2)Man(a1-6)]Man(b1-4)GlcNAc(b1-4)GlcNAc
# Procedure, shortened: as §1
# [30] = target: Gal(b1-4)GlcNAc(b1-2)[Gal(b1-4)GlcNAc(b1-4)]Man(a1-3)[GlcNAc(b1-4)][Gal(b1-4)GlcNAc(b1-2)[Gal(b1-4)GlcNAc(b1-6)]Man(a1-6)]Man(b1-4)GlcNAc(b1-4)GlcNAc
# Procedure, shortened: as §1
# [31] = target: Gal(b1-4)GlcNAc(b1-2)[Gal(b1-4)GlcNAc(b1-6)]Man(a1-6)[Gal(b1-4)GlcNAc(b1-2)Man(a1-3)]Man(b1-4)GlcNAc(b1-4)GlcNAc
# Procedure, shortened: as §1
binder,measurement,setting,value
B1,glycan array binding signal (z-score),[1],-0.392
same,glycan array binding signal (z-score),[2],0.864
same,glycan array binding signal (z-score),Gal(b1-3)GlcNAc6S,-0.028
same,glycan array binding signal (z-score),[3],-0.398
same,glycan array binding signal (z-score),[4],-0.431
same,glycan array binding signal (z-score),[5],-0.377
same,glycan array binding signal (z-score),[6],-0.443
same,glycan array binding signal (z-score),[7],-0.461
same,glycan array binding signal (z-score),[8],-0.345
same,glycan array binding signal (z-score),[9],0.878
same,glycan array binding signal (z-score),[10],0.269
same,glycan array binding signal (z-score),[11],-0.329
same,glycan array binding signal (z-score),[12],-0.225
same,glycan array binding signal (z-score),Gal(b1-4)Gal,-0.43
same,glycan array binding signal (z-score),[13],0.148
same,glycan array binding signal (z-score),[14],0.692
same,glycan array binding signal (z-score),Gal(b1-4)Glc,0.01
same,glycan array binding signal (z-score),Gal(b1-4)Glc6S,1.23
same,glycan array binding signal (z-score),Gal(b1-4)GlcNAc,0.529
same,glycan array binding signal (z-score),[15],2.28
same,glycan array binding signal (z-score),Gal(b1-4)GlcNAc(b1-2)Man,-0.422
same,glycan array binding signal (z-score),[16],1.01
same,glycan array binding signal (z-score),[17],1.23
same,glycan array binding signal (z-score),[18],0.479
same,glycan array binding signal (z-score),[19],0.199
same,glycan array binding signal (z-score),[20],0.633
same,glycan array binding signal (z-score),[21],0.541
same,glycan array binding signal (z-score),[22],0.202
same,glycan array binding signal (z-score),[23],0.83
same,glycan array binding signal (z-score),[24],0.135
same,glycan array binding signal (z-score),[25],0.1
same,glycan array binding signal (z-score),[26],-0.034
same,glycan array binding signal (z-score),[27],1.96
same,glycan array binding signal (z-score),[28],1.94
same,glycan array binding signal (z-score),[29],1.34
same,glycan array binding signal (z-score),[30],1.96
same,glycan array binding signal (z-score),[31],1.4
